For 14 substances, binding results are on record in paper PMC6436656.

Chains of the proteins cited; added tags and fusions are not shown. Lines headed by an entry give the natural chain unless they say otherwise; changes in a name come on top. A line that says so, or that is headed by a name, gives the form on record, which may keep a tag or linker. Residues count along the entry.
UniProt Q9HC97: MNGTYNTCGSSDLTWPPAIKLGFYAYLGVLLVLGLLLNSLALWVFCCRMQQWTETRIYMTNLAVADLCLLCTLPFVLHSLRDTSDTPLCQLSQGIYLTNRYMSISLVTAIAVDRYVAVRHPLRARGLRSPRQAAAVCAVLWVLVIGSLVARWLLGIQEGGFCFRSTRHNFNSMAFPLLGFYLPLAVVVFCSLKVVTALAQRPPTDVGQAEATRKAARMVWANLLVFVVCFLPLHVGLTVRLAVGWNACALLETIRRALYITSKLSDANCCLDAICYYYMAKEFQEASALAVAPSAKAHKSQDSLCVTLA
UniProt Q9ES90: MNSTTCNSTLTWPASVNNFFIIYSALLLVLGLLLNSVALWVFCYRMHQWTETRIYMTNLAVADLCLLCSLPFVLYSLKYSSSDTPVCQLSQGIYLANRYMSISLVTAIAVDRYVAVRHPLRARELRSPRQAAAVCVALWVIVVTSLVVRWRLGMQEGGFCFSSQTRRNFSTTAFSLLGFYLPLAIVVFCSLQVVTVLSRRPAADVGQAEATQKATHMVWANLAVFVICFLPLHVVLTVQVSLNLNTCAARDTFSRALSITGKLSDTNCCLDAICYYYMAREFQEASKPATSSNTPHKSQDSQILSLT
UniProt Q14344: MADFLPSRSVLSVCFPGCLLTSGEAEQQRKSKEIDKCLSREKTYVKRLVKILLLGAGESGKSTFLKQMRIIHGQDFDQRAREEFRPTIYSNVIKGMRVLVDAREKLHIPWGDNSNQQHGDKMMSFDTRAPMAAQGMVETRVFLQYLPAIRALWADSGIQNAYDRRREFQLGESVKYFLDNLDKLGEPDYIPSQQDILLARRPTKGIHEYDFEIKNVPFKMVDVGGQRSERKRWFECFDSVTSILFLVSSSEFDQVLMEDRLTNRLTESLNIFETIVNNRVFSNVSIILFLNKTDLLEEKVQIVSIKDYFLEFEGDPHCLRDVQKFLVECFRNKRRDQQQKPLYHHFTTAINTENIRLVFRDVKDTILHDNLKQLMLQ
full-length human Gα13 with Nanoluc inserted after Arg128, G.H5.22 Gln converted to Asp (Q14344, form named): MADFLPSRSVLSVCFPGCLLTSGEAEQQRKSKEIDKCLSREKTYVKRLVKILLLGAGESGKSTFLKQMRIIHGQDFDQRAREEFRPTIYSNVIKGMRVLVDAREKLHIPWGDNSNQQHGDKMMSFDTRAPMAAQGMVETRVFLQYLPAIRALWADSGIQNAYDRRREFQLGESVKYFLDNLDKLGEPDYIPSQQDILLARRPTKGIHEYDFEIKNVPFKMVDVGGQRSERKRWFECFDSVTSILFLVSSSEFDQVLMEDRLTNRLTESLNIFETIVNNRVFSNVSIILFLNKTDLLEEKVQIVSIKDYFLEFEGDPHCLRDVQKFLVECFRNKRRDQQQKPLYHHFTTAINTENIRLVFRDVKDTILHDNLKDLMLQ
final 27 aa of Gα13 with G.H5.22 Gln replaced by Asp (hGPR35 SPASM sensor) (Q14344, form named): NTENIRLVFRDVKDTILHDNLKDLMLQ
final 27 aa of Gα13 with G.H5.22 Gln and G.H5.23 Leu replaced by Asp and Ile of Gα12 (hGPR35 SPASM sensor) (Q14344, form named): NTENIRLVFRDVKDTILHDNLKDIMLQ
final 27 aa of Gα13 with G.H5.17 His and G.H5.18 Asp swapped for Gln and Glu of Gα12 (hGPR35 SPASM sensor) (Q14344, form named): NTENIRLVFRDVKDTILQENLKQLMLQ
final 27 aa of Gα12, G peptide of the hGPR35-Gα12 SPASM sensor (Q03113, residues 355-381): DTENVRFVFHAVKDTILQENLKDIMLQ
final 27 aa of Gα12 with G.H5.17 Gln and G.H5.18 Glu swapped for His and Asp of Gα13 (hGPR35 SPASM sensor) (Q03113, form named): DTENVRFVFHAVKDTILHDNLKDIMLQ
final 27 aa of Gα12 with G.H5.23 Ile replaced by Leu (hGPR35 SPASM sensor) (Q03113, form named): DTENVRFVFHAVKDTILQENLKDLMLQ
final 27 aa of Gα12 with G.H5.22 Asp replaced by Gln (hGPR35 SPASM sensor) (Q03113, form named): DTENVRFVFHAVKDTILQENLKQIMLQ
final 27 aa of Gα12 with G.H5.22 Asp and G.H5.23 Ile replaced by Gln and Leu of Gα13 (hGPR35 SPASM sensor) (Q03113, form named): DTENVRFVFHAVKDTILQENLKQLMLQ
UniProt P32121: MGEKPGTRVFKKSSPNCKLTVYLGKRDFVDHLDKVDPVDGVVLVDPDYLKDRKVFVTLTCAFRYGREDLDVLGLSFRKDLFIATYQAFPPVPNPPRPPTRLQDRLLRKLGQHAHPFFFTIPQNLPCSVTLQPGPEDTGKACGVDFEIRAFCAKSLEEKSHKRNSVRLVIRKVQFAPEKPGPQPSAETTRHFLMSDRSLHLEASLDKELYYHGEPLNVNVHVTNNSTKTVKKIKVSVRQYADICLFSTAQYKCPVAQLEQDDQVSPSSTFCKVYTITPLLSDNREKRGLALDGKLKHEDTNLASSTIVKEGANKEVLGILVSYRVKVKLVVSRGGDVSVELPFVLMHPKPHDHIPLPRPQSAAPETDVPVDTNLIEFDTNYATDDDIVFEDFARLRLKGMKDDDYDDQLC
final 27 aa of Gαq, G peptide of the hGPR35-Gαq SPASM sensor (P50148, residues 333-359): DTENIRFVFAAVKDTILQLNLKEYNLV
final 27 aa of Gαq with G.H5.23 Tyr replaced by Leu (hGPR35 SPASM sensor) (P50148, form named): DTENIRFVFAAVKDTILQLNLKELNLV

No constants are given. Whether binding was seen depends on the method and setting. In cells and extracts the contact can be indirect. Some results given as binding are weak or reduced against the parent protein; the word gives no strength.

Experiment [1] has as its target human GPR35 (GPR35a splice variant), receptor part of the hGPR35 SPASM sensors (human) (UniProt Q9HC97). Description: FRET or BRET; endpoint read of the single-chain SPASM sensor (Nanoluc to mCitrine) in living Flp-In T-REx 293 cells, stable, doxycycline-induced; 5 min after varying concentrations of GPR35 agonists; fold change over vehicle.
For experiment [2] the target is unchanged. Briefly: FRET or BRET; endpoint read of the single-chain SPASM sensor (Nanoluc to mCitrine), sensors transiently expressed (HEK293-T); varying concentrations of zaprinast, lodoxamide, pamoic acid.
The target is the same in experiment [3]. Description: FRET or BRET; kinetic read of the single-chain SPASM sensor (Nanoluc to mCitrine) in living Flp-In T-REx 293 cells, stable, doxycycline-induced; zaprinast (EC80, 16 uM human, 1 uM mouse) added at 30 s, read over 6 min; 37°C, HBSS with 10 mM HEPES; CID2745687 10 uM added at 120 s in some studies.
Experiment [4] concerns the target mouse GPR35, receptor part of the mGPR35 SPASM sensors (mouse) (UniProt Q9ES90). The description is as above.
Experiment [5] addresses hGPR35 tagged at the C terminus with enhanced yellow fluorescent protein (human) (UniProt Q9HC97). Description: FRET or BRET; intermolecular BRET between full-length Gα13 with internal Nanoluc and hGPR35-eYFP, coexpressed transiently in HEK293 cells lacking Gα12 and Gα13; varying concentrations of zaprinast or lodoxamide.
Experiment [6] has the same target. Description: FRET or BRET; intermolecular BRET between β-arrestin-2-Renilla luciferase and hGPR35-eYFP, coexpressed transiently in HEK293-T cells; agonist-induced, coelenterazine-h.
In experiment [7] the target is human GPR35 (GPR35a splice variant), receptor part of the hGPR35 SPASM sensors (human) (UniProt Q9HC97). Briefly: FRET or BRET; single-chain hGPR35 SPASM sensors with the C-terminal 27 aa of Gαq, G.H5.23Leu Gαq or Gα13; varying concentrations of lodoxamide or bufrolin; cells and mode of expression not told for this panel.

Turning to “final 27 aa of Gα13, G peptide of the GPR35-Gα13 SPASM sensors (from UniProt Q14344 351-377) (domain or fragment)”, the binding result in experiment [1], in experiment [2], in experiment [3] and in experiment [4] was “binds” in each case.

“full-length human Gα13 with Nanoluc inserted after Arg128, G.H5.22 Gln converted to Asp (from UniProt Q14344 1-377)”: the binding entry in experiment [5] was “binds”.

Turning to “final 27 aa of Gα12, G peptide of the hGPR35-Gα12 SPASM sensor (from UniProt Q03113 355-381) (domain or fragment)”, the binding result in experiment [1] and in experiment [2] was “binds weakly” each time. Take “β-arrestin-2 tagged with Renilla luciferase (from UniProt P32121 1-409)”: the binding entry in experiment [6] was “binds”. For “final 27 aa of Gα12 with G.H5.17 Gln and G.H5.18 Glu swapped for His and Asp of Gα13 (hGPR35 SPASM sensor) (from UniProt Q03113 355-381) (domain or fragment)”, the binding entry in experiment [1] is reported as “binds weakly”. For the substance “final 27 aa of Gαq with G.H5.23 Tyr replaced by Leu (hGPR35 SPASM sensor) (from UniProt P50148 333-359) (domain or fragment)”, in experiment [7], the binding entry is recorded as “binds”. With “full-length human Gα13 with Nanoluc inserted after Arg128, wild type (from UniProt Q14344 1-377)”, the binding result in experiment [5] is recorded as “binds”.

“final 27 aa of Gα13 with G.H5.22 Gln replaced by Asp (hGPR35 SPASM sensor) (from UniProt Q14344 351-377) (domain or fragment)”: the binding result in experiment [1] was “binds”. For “final 27 aa of Gαq, G peptide of the hGPR35-Gαq SPASM sensor (from UniProt P50148 333-359) (domain or fragment)”, the binding entry in experiment [7] was “no binding”.

For the substance “final 27 aa of Gα12 with G.H5.23 Ile replaced by Leu (hGPR35 SPASM sensor) (from UniProt Q03113 355-381) (domain or fragment)”, the binding entry in experiment [1] is recorded as “binds”. Regarding “final 27 aa of Gα13 with G.H5.22 Gln and G.H5.23 Leu replaced by Asp and Ile of Gα12 (hGPR35 SPASM sensor) (from UniProt Q14344 351-377) (domain or fragment)”, the binding result in experiment [1] is listed as “binds weakly”.

Turning to “final 27 aa of Gα12 with G.H5.22 Asp replaced by Gln (hGPR35 SPASM sensor) (from UniProt Q03113 355-381) (domain or fragment)”, the binding entry in experiment [1] was “binds”. The same measure, in the same setting: for “final 27 aa of Gα13 with G.H5.17 His and G.H5.18 Asp swapped for Gln and Glu of Gα12 (hGPR35 SPASM sensor) (from UniProt Q14344 351-377) (domain or fragment)” the value was “binds”; for “final 27 aa of Gα12 with G.H5.22 Asp and G.H5.23 Ile replaced by Gln and Leu of Gα13 (hGPR35 SPASM sensor) (from UniProt Q03113 355-381) (domain or fragment)”, “binds”.
